Results: the supplement of paper PMC11417369
Some of the results follow.

test system: PfSIP2 AP2 domain 1 (GST-tagged); test: gcPBM binding intensity (ln(normalized median fluorescence intensity)); higher = stronger DNA binding
Summary of the method: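 GST-fused DNA-binding domains of P. falciparum, expressed in E. coli, were applied at about 25 μg on average for 1 h to an Agilent 4 × 180k array of primer-extended double-stranded 36-bp intergenic genomic probes and negative controls. Binding intensity is the highest Masliner-normalised natural-log median intensity across replicate spots of either probe orientation, measured with Alexa488 anti-GST antibody and a 488 nm scan.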

Sequence | gcPBM binding intensity (ln)
ATATATATATATATGGTGCATGAAAATTTACTTTGA | 9.74
ATATACTCATTTAATACACACAAAGAGAAAATTAAT [CACACA_site1923] | 6.89
GATATTTGTTCATATACACACTTTTGATAAAATATG [CACACA_site4807] | 7.01
ATAGTACAACAGGTTCTTGACAAACAATATGAATGT [GTGCAC_negctrl_site442] | 7
TTTATATAATTTTTTTGTACATATATATGAATACAT [XGTACX_site2316] | 7.11
TAATTTTTTTTTTTTTTTCATTCTTTTCCTTTGATT [CACACA_negctrl_site1365] | 6.47
TACTAACATAAAGACACACACCACATAAAATAAATA [CACACA_site7663] | 7.2
CTTATTTTGTTATAAGTGCATTTTTTAAAATTTCTT | 9.64
ATAGTATACAGACACACACACACACCGATATATATA [CACACA_site8511] | 7.43
GGAAGAAAACTTAGGTGTACATATAAAACGATATAA [XGTACX_site3118] | 7.13
TATGAACACAGACACACACACAAAAAAAAAAAAAAA [CACACA_site7037] | 7.01
TATACCTTTGCGTGTGCATGCGCTTATATATATTTT [TGCATGCA_site152] | 7.69
TTTATGTGTATGTTTACACACATAAAAAAATATATG [CACACA_site3039] | 7.01
TATTTTTAATATTTTGCATGCAGTATTTTATAAAAT [TGCATGCA_site250] | 7.17
ACAATTCCCGTATGATGTACTTTTTTCCACTTTTTC [XGTACX_site1811] | 7.1
TTTTTGTTATTATGTGTGCACATATATATATATATA | 9.79
TATGTTATTATTTGTACACACACATATATATCCTTG [CACACA_site5910] | 7.23
AACAAATATCCCAAAAGTACACATATAAAAAAAAAA [XGTACX_site4126] | 7.26
ATTATCTTATGTTATTTATTTGTCCCACATTTGTTA [TGCATGCA_negctrl_site402] | 7.07
CATACACCCAGACACACACACATATATATATATATA [CACACA_site634] | 9.39
TACCTAATATGTTATACACACATTAGAAGTACATAT [CACACA_site5375] | 7
ATAAAAAAAAAAAAAAAATATATATATATATATATA [XGTACX_negctrl_site424] | 9.64
TTATTTTTATTATTTTGTATATATATTTATAGAAAA [XGTACX_negctrl_site465] | 7.24

Sequence | gcPBM binding intensity (ln)
TGTAATAACGTTATAAAAAGTATAAAAAAAAAAAAA [CACACA_negctrl_site943] | 6.85
TATATACTTTTTAATCACACTTCTTTAAAAAAAGTA [CACACA_negctrl_site1380] | 7.11
TTTTAGGTCTGAATGTGTACTAAATAATATAAGTAT [XGTACX_site6554] | 7.37
AATAAATAAATAAATTAATAAATTAATAAATTAATA [GTGCAC_negctrl_site37] | 6.6
CACACAAAGGAATATACACACATATTTATATTTATA [CACACA_site7841] | 6.93
GTATATAATTTTTTATGTACTAAATTATATGTTTTT [XGTACX_site4907] | 6.87
CAAAATTTTTATAAGTCACACATTATCTAAGCTTAT [CACACA_site5747] | 6.69
TACAACATATTCAAATGTACAAATATAGGAATGAAA [XGTACX_site2730] | 7.08
AGCGTATTATACTGACGTACATTTTATGTAACTCCA [XGTACX_site2715] | 6.81
AACATAAAATGGATATGTACATAAAAATATATACTC [XGTACX_site7775] | 6.9
TTATGTATTCATAACACATGCAAATAGGATCATATA [TGCATGCA_site731] | 7.08
CGTTAGAGGGCTTTATCACACATGAAAAAAAAAAAA [CACACA_site5155] | 6.94
CACACGCACAGACACACACACACATATAAATATGTA [CACACA_site6300] | 7.58
ATATGATTTCACAAGACACACACATACAAATTTATA [CACACA_site9296] | 7.2
AAAAAAAAAAAAAACACACACAAATTTAATATATAT [CACACA_site1695] | 7.21
TATATATATAACAACACACACAGATCATAAAACTGC [CACACA_site2161] | 8.05
TATATTTATTTTAACACACACATATATATATTATAT [CACACA_site4729] | 7.39
TCCCAAGGAGTAGGCACACATAAAATATTATACATA [CACACA_site717] | 6.87
AAAAAAAAAAAAAAAACACACACAAATTTAATATAT [CACACA_site8492] | 7.6
AAAATTAAAGTAAGGACACACATATATAATACATAT [CACACA_site823] | 7.05
TACACCAAAAAAAAACGTACAAAATCCCACCCAGAC [XGTACX_site4622] | 7.5
TAGTATCAATCTTATACATGCATAAAATAATTATAA [TGCATGCA_site1052] | 6.95
GTGTTCTTGTTATACACACACATATTTATATTTATA [CACACA_site6615] | 7.24

Sequence | gcPBM binding intensity (ln)
TTTATTTATATAATTACACACATATATACGCAAATG [CACACA_site2794] | 7.18
TTTTATTCATTAATTTGTACTTATCCTTTTGCTTAA [XGTACX_site1243] | 7.12
TCATTAATTAAATCTTGTACATATTCATATATATAT [XGTACX_site2241] | 8.85
AAAGTATAGATGTATACACACACCAAACGTTAAAAA [CACACA_site3081] | 6.92
TAAGCCAAGGGATAAATAAAATAACAAAATGAAATC [GTGCAC_negctrl_site601] | 6.78
AAATATATTATAAATTGTACGTTTATATATATTATT [XGTACX_site5110] | 6.89
TAAAGTTTTTTTTTAACACACACATAATAAAATAAA [CACACA_site8042] | 7.28
TAAAAAAATAAAAAAAAAAAATTATAAAATTATATA [GTGCAC_negctrl_site302] | 6.55
GACACATATAAATATTAACACACATAATGAATTATA [CACACA_site8881] | 7.26
ACATTATGCCATAAATGTACACATACATATACACAG [XGTACX_site1330] | 7.13
TAACTAAGGAATAATACACACAGAAATATATATTTA [CACACA_site344] | 6.77
GATGATGTTACTTAAGTGCATATAAATTATATTTTA [GTGCAC_site9940] | 7.87
TCATATGTGAAACACACACACACACCCAAAAAAACA [CACACA_site3247] | 7.05
ATTATGTTATTATTTTGTACACATAAATAATACGTT [XGTACX_site816] | 7.24
TGTTTCTTATTTTTTTCACACACTAATCATTTCAAA [CACACA_site8695] | 7.29
GAACAAAAATACTTATGTACACATTAGCAAGGAAAA [XGTACX_site5622] | 7.12
TATACGCATATATACACACACATATATATATATATA [CACACA_site3416] | 9.43
AAACAAAAAAGAAGCACACATATATATATATATATG [CACACA_site2456] | 7.54
ATCTGAAAAATTAATAGTACAATTAATAATTAAACC [XGTACX_site8523] | 7.16
TGTTAATTTCATTTTCTACACACCTATCCTTTTTTT [CACACA_site8157] | 6.95
ACAAATAAATATTCGCGTACTTATATAATATTACGA [XGTACX_site6428] | 7.02
AACAAACAAATAGTTTATTTTGATTTTTTTAAAAAT [CACACA_negctrl_site693] | 6.67
AAAAAAAATATCCGACGTACTATTTTCGTAGAAATA [XGTACX_site6292] | 6.83

Sequence | gcPBM binding intensity (ln)
AAAAAAAAAAAAAAAAAAAAAAAAATCACACATTGG [TGCATGCA_negctrl_site412] | 8.67
TTTTGGATGTATTATACATGCATATTATTATAATAT [TGCATGCA_site997] | 7.25
AAAAAAAAAAAATAAAGTACTAAATAATACATTATA [XGTACX_site6203] | 7.02
AGAAAAGAAATTAAATGTACACAACTATAACCAAAT [XGTACX_site8084] | 7.44
TGTACAACAATTTTTGCACACACCAAAACATAAAAT [CACACA_site1598] | 7.36
TTTTATAAAATATAATATAATAATATATGTATAATA [CACACA_negctrl_site1788] | 6.78
ATATATCTACAAATATGTACACACACACATATATAT [XGTACX_site1075] | 7.33
TTTTTTACAATTAACACACTCAAAAATAATATTAAA [CACACA_site5198] | 6.97
AATTTTTTAAATGTGTGTACATATTATTTAAATAAT [XGTACX_site5967] | 6.9
TATATTATATATATATGTACATATGGCAAAACATTA [XGTACX_site7958] | 7.29
AAAAAAAAAAAAAAATGTACCCATAAAATAAGCATT [XGTACX_site8576] | 7.47
AATCACAACGAACACACACACAAAAAAAAAAAAAAA [CACACA_site6790] | 7.22
ATATATATATCTAATTGTACATATTTTATAAATAAG [XGTACX_site4840] | 8.45
AAAAATTAAATGTACACACACCTTAAACAATGTCAT [CACACA_site6958] | 7.11
AAATACTGATTTGGTTGTACATGTGCACTATATAAC [XGTACX_site3795] | 11.4
ATAAATATATTTATATGTACATATAATTTTACATAT [XGTACX_site5440] | 7.28
TATAATCTAACATAATGTACATGTATATGCACTTTA [XGTACX_site369] | 9.37
AATATAAATACTCCTACACACATATAAATATAAATA [CACACA_site7419] | 7.27
TCCACATTAATGTAATGTACAAAATTAGAAAATAAA [XGTACX_site6287] | 6.95
TTTTGATTAAGTGAATTTTTTTATTTATATAAATAT [TGCATGCA_negctrl_site479] | 6.79
